The supplement of paper PMC8728848
Some of the results follow.

Tests used:
Assay in all cases: glycan array binding signal (z-score within array); higher = stronger binding
Details in all cases: glycan notation: IUPAC condensed, linker removed
[1] = target: GlcNAc(b1-4)GlcNAc(b1-4)GlcNAc(b1-4)GlcNAc(b1-4)GlcNAc(b1-4)GlcNAc
In short: (§1)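 Arrays were curated from the Consortium for Functional Glycomics database, 3228 in total, and kept only where the protein sequence was available. Binding is expressed as a within-array Z-score. This score was averaged across arrays of the same protein sequence at different concentrations or buffers and across linkers, and negative values can be read as non-binding.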

[2] = target: GlcNAc(b1-4)[GlcNAc(b1-6)]GalNAc
In short: as §1

[3] = target: GlcNAc(b1-6)Gal(b1-4)GlcNAc
In short: as §1

GlcNAc(b1-6)GalNAc = target: GlcNAc(b1-6)GalNAc
In short: as §1

[4] = target: GlcNAc6S(b1-3)Gal(b1-4)GlcNAc
In short: as §1

Kdn(a2-3)Gal(b1-3)GalNAc = target: Kdn(a2-3)Gal(b1-3)GalNAc
In short: as §1

Kdn(a2-3)Gal(b1-3)GlcNAc = target: Kdn(a2-3)Gal(b1-3)GlcNAc
In short: as §1

Kdn(a2-3)Gal(b1-4)Glc = target: Kdn(a2-3)Gal(b1-4)Glc
In short: as §1

Kdn(a2-3)Gal(b1-4)GlcNAc = target: Kdn(a2-3)Gal(b1-4)GlcNAc
In short: as §1

[5] = target: Kdn(a2-3)Gal(b1-4)[Fuc(a1-3)]GlcNAc
In short: as §1

Kdn(a2-6)Gal(b1-4)GlcNAc = target: Kdn(a2-6)Gal(b1-4)GlcNAc
In short: as §1

[6] = target: Man(a1-2)Man(a1-2)Man(a1-3)Man
In short: as §1

[7] = target: Man(a1-2)Man(a1-2)Man(a1-6)[Man(a1-3)]Man
In short: as §1

Man(a1-2)Man(a1-3)Man = target: Man(a1-2)Man(a1-3)Man
In short: as §1

[8] = target: Man(a1-2)Man(a1-3)[Man(a1-2)Man(a1-6)]Man
In short: as §1

[9] = target: Man(a1-2)Man(a1-3)[Man(a1-2)Man(a1-6)]Man(a1-6)[Man(a1-2)Man(a1-2)Man(a1-3)]Man
In short: as §1

[10] = target: Man(a1-2)Man(a1-3)[Man(a1-2)Man(a1-6)]Man(a1-6)[Man(a1-2)Man(a1-2)Man(a1-3)]Man(b1-4)GlcNAc(b1-4)GlcNAc
In short: as §1

[11] = target: Man(a1-2)Man(a1-3)[Man(a1-6)]Man(a1-6)[Man(a1-2)Man(a1-3)]Man(b1-4)GlcNAc(b1-4)GlcNAc
In short: as §1

[12] = target: Man(a1-2)Man(a1-6)[Man(a1-3)]Man(a1-6)[Man(a1-2)Man(a1-2)Man(a1-3)]Man
In short: as §1

[13] = target: Man(a1-2)Man(a1-6)[Man(a1-3)]Man(a1-6)[Man(a1-2)Man(a1-2)Man(a1-3)]Man(b1-4)GlcNAc(b1-4)GlcNAc
In short: as §1

Man(a1-3)[Man(a1-6)]Man = target: Man(a1-3)[Man(a1-6)]Man
In short: as §1

[14] = target: Man(a1-3)[Man(a1-6)]Man(a1-6)[Man(a1-2)Man(a1-3)]Man(b1-4)GlcNAc(b1-4)GlcNAc
In short: as §1

[15] = target: Man(a1-3)[Man(a1-6)]Man(a1-6)[Man(a1-3)]Man
In short: as §1

[16] = target: Man(a1-3)[Man(a1-6)]Man(a1-6)[Man(a1-3)]Man(b1-4)GlcNAc(b1-4)GlcNAc
In short: as §1

[17] = target: Man(a1-3)[Man(a1-6)]Man(b1-4)GlcNAc(b1-4)GlcNAc
In short: as §1

[18] = target: Man(a1-3)[Man(a1-6)]Man(b1-4)GlcNAc(b1-4)[Fuc(a1-6)]GlcNAc
In short: as §1

Man(a1-6)Man = target: Man(a1-6)Man
In short: as §1

Man(b1-4)GlcNAc = target: Man(b1-4)GlcNAc
In short: as §1

MurNAc(b1-4)GlcNAc = target: MurNAc(b1-4)GlcNAc
In short: as §1

Neu5Ac(a2-3)Gal = target: Neu5Ac(a2-3)Gal
In short: as §1

[19] = target: Neu5Ac(a2-3)Gal(b1-3)GalNAc
In short: as §1

[20] = target: Neu5Ac(a2-3)Gal(b1-3)GalNAc(b1-3)Gal(a1-4)Gal(b1-4)Glc
In short: as §1

[21] = target: Neu5Ac(a2-3)Gal(b1-3)GalNAc(b1-4)[Neu5Ac(a2-3)]Gal(b1-4)Glc
In short: as §1

[22] = target: Neu5Ac(a2-3)Gal(b1-3)GalNAc(b1-4)[Neu5Ac(a2-8)Neu5Ac(a2-3)]Gal(b1-4)Glc
In short: as §1

[23] = target: Neu5Ac(a2-3)Gal(b1-3)GalNAc6S
In short: as §1

[24] = target: Neu5Ac(a2-3)Gal(b1-3)GlcNAc
In short: as §1

[25] = target: Neu5Ac(a2-3)Gal(b1-3)GlcNAc(b1-2)Man
In short: as §1

B1: Cohesin-mDC-ASGPR (Macaca mulatta) (protein)
chain: LDITSHHHHHHDDLDAVRIKVDTVNAKPGDTVRIPVRFSGIPSKGIANCDFVYSYDPNVLEIIEIEPGDIIVDPNPDKSFDTAVYPDRKIIVFLFAEDSGTGAYAITKDGVFATIVAKVKEGAPNGLSVIKFVEVGGFANNDLVEQKTQFFDGGVNVGDTTEPATPTTPVTTPTTTDDLDAASSQNSKFQRDLVTLRTDFSNFTSNTVAEIQALTSQGSSVEEMIASLKAEVEVIKQEQQAVHSEMLLRVQRLMQDLNKLTCQVATLKNNASTERTCCPVNWVEHQDSCYWFSRSGMPWAEAEKHCQLENAHLVVINSREEQNFVQEHLSFAYTWMGLSDREGAWKWVDGTDYETGFQNWKPGQPDDWQGHGLGGGEDCAHFHPDGRWNDDVCQRPYYWVCEAGLTQASQESH
**Q.** What does the source list for B1?
**A.** glycan array binding signal (z-score) [1]: -0.35; glycan array binding signal (z-score) [2]: -0.393; glycan array binding signal (z-score) [3]: -0.406; glycan array binding signal (z-score) (GlcNAc(b1-6)GalNAc): 3.07; glycan array binding signal (z-score) [4]: -0.417; glycan array binding signal (z-score) (Kdn(a2-3)Gal(b1-3)GalNAc): -0.062; glycan array binding signal (z-score) (Kdn(a2-3)Gal(b1-3)GlcNAc): -0.429; glycan array binding signal (z-score) (Kdn(a2-3)Gal(b1-4)Glc): -0.397; glycan array binding signal (z-score) (Kdn(a2-3)Gal(b1-4)GlcNAc): -0.426; glycan array binding signal (z-score) [5]: -0.378; glycan array binding signal (z-score) (Kdn(a2-6)Gal(b1-4)GlcNAc): -0.387; glycan array binding signal (z-score) [6]: 0.068; glycan array binding signal (z-score) [7]: -0.399; glycan array binding signal (z-score) (Man(a1-2)Man(a1-3)Man): -0.366; glycan array binding signal (z-score) [8]: -0.414; glycan array binding signal (z-score) [9]: -0.409; glycan array binding signal (z-score) [10]: -0.332; glycan array binding signal (z-score) [11]: -0.403; glycan array binding signal (z-score) [12]: -0.372; glycan array binding signal (z-score) [13]: -0.407; glycan array binding signal (z-score) (Man(a1-3)[Man(a1-6)]Man): -0.397; glycan array binding signal (z-score) [14]: -0.326; glycan array binding signal (z-score) [15]: -0.405; glycan array binding signal (z-score) [16]: -0.403; glycan array binding signal (z-score) [17]: -0.408; glycan array binding signal (z-score) [18]: -0.432; glycan array binding signal (z-score) (Man(a1-6)Man): -0.297; glycan array binding signal (z-score) (Man(b1-4)GlcNAc): -0.376; glycan array binding signal (z-score) (MurNAc(b1-4)GlcNAc): -0.419; glycan array binding signal (z-score) (Neu5Ac(a2-3)Gal): -0.373; glycan array binding signal (z-score) [19]: -0.406; glycan array binding signal (z-score) [20]: -0.36; glycan array binding signal (z-score) [21]: -0.356; glycan array binding signal (z-score) [22]: -0.113; glycan array binding signal (z-score) [23]: -0.315; glycan array binding signal (z-score) [24]: -0.412; glycan array binding signal (z-score) [25]: -0.342
